This passage reports growth inhibition results from the supplement of paper PMC7266297.

Molecules are shown by their SMILES. Counter-ions that a name gives are not always drawn. The list shows a part of the results. Repeats are few or missing, and single values can be far off. Some results are limits rather than exact numbers.

For one assay, the system named is KB-3-1. As to the kind of experiment: growth inhibition relative to DMSO control (SRB); cervical cancer cells: KB-3-1 is the parent and KB-V1 overexpresses MDR1; SRB is the sulforhodamine B stain; higher = more growth inhibition. Conditions: 1 µM; 72 h.
For a further assay, the system named is KB-V1. The description is as above. Conditions: 1 µM; 72 h.
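Also: Read-out is SRB optical density at 490 nm, with the control being wells given 0.5% DMSO vehicle, and compound added one day after cells were plated.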

As for `Cc1sc2c(c1C)C(c1ccc(Cl)cc1)=N[C@@H](CC(=O)Nc1ccc(O)cc1)c1nnc(C)n1-2`, the figures for the growth inhibition in the assay with KB-3-1 and in the assay with KB-V1 were 55% and 40.9%, respectively.
On to `C#C[C@]1(O)C=C[C@H]2[C@@H]3CCC4=CC(=O)CC[C@@H]4[C@H]3CC[C@@]21CC` [Gestodene], for which the figures for the growth inhibition in the assay with KB-3-1 and in the assay with KB-V1 were 9.33% and 31.4%, respectively.
As for `CC(=O)Nc1ccc(OC[C@](C)(O)C(=O)Nc2ccc([N+](=O)[O-])c(C(F)(F)F)c2)cc1` [Andarine], the growth inhibition came out at 31.6% in the assay on KB-3-1 and 29.1% with KB-V1.
Consider `C[C@]12CCC(=O)C(O)=C1CC[C@@H]1[C@@H]2CC[C@]2(C)C(=O)CC[C@@H]12` [Formestane], for which the growth inhibition is below 0% with KB-3-1 and 21.5% with KB-V1.
On to `CCN(C)C(=O)Oc1cccc([C@H](C)N(C)C)c1` [Rivastigmine Tartrate], for which the growth inhibition in the assay with KB-3-1 and with KB-V1 was 21.1% each time.
On to `CN1[C@@H]2CC(O)C[C@H]1[C@@H]1O[C@@H]12` (some centres not stated) [Scopine], for which the growth inhibition in the assay on KB-3-1 was 11.8%; in the assay with KB-V1, 17.1%.
In the same order, the values of `C[C@@H]1O[C@@H](O[C@H]2C[C@@H](O)[C@]3(CO)[C@H]4[C@H](O)C[C@]5(C)[C@@H](C6=CC(=O)OC6)CC[C@]5(O)[C@@H]4CC[C@]3(O)C2)[C@H](O)[C@H](O)[C@H]1O` [Ouabain] are 41% and 78.8%.
In the same order, the values of `Cc1cccc([C@H](C)c2c[nH]cn2)c1C` [Dexmedetomidine] are below 0% and 11%.
Consider `CNCC(O)c1ccc(O)cc1` (configuration not stated) [Synephrine HCl], for which the growth inhibition worked out at 20.7% with KB-3-1 and 27.8% in the assay with KB-V1.
For `CCC(COC(=O)c1cc(OC)c(OC)c(OC)c1)(c1ccccc1)N(C)C` (configuration not stated) [Trimebutine] the same measures were 22.3% and 34%.
Consider `CN1[C@@H]2CC[C@H]1C[C@@H](OC(=O)[C@H](CO)c1ccccc1)C2` [Hyoscyamine], for which the growth inhibition was below 0% in the assay with KB-3-1 and 8.05% in the assay with KB-V1.
